Here are results for 18 molecules from the supplement of paper PMC10369915.

Some of the results follow. No stated cut-off is given here; in the data, active = 3.2 or more and inactive = the rest. Only a few entries rise above the background.
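Further: displayed peptides selected on beads carrying the immobilized SH2 domain, with library peptides lacking any tyrosine serving as negative controls.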

For the first experiment, the target named is SHP2 C-SH2 domain E139D. Nature of the experiment: enrichment score (SH2-bound / input frequency) (ratio); bacterial display of known human phosphotyrosine sites (pTyr-Var adds point mutants) read by sequencing; higher = stronger binding; tyrosines were phosphorylated by kinases first. The settings on record: peptide library: pTyr-Var.
In the case of LCRYGYANTSE [SI_Y1233], the enrichment score is inactive: 1.06.

Regarding LCRFGYANTSE [SI_Y1233_YF], the enrichment score was inactive: 0.89.

With PTFENYANSTQ [SLC12A3_Y70_H69N_YF], the enrichment score is inactive: 0.832.

For the molecule LSFSEYASVQV [SIRPA_Y496_P491L], the enrichment score is inactive: 1.08.

Regarding PTFKHYANSTQ [SLC12A3_Y70_E68K_YF], the enrichment score is inactive: 0.627.

Consider NSNSDYVDVLP [SH2D1B_Y127], for which the enrichment score is inactive: 0.512.

With AIFRRYSKFFD [SH3PXD2B_Y45_YF], the enrichment score was inactive: 0.233.

On to KGIQLYDTPFE [SHB_Y297_YF], for which the enrichment score is inactive: 1.28.

Turning to KPAFSYTSSST [SIM1_Y356], the enrichment score was inactive: 0.846.

With ERFSYYGMKAV [SLC15A2_Y61], the enrichment score was inactive: 1.06.

Regarding PGQRVYVVAES [SHH_Y316_R321S], the enrichment score was inactive: 0.71.

CERFSYYGMKA [SLC15A2_Y60]: the enrichment score is inactive: 1.03.

In the case of STEAIYWRYSK [SH3PXD2B_Y42_R43W], the enrichment score was inactive: 0.72.

Consider KGIQLYDTPYE [SHB_Y297], for which the enrichment score is inactive: 1.4.

For ALVFLYFCIIF [SIGLEC12_Y494], the enrichment score is inactive: 1.14.

As to CEHFSYYGMKA [SLC15A2_Y60_R57H], the enrichment score was inactive: 1.3.

Take QYQLKYSETPF [SIX6OS1_Y129]: the enrichment score is inactive: 0.768.

RKVAQYMLENE [SLC16A6_Y224_E221V]: the enrichment score was inactive: 0.618.

Another experiment deals with SHP2 C-SH2 domain wild-type. The description is as above. The settings on record: peptide library: pTyr-Var.
Consider LCRYGYANTSE [SI_Y1233], for which the enrichment score was inactive: 0.775.

LCRFGYANTSE [SI_Y1233_YF]: the enrichment score was inactive: 0.834.

On to PTFENYANSTQ [SLC12A3_Y70_H69N_YF], for which the enrichment score is inactive: 0.419.

With LSFSEYASVQV [SIRPA_Y496_P491L], the enrichment score was inactive: 1.02.

For the molecule PTFKHYANSTQ [SLC12A3_Y70_E68K_YF], the enrichment score is inactive: 0.742.

On to NSNSDYVDVLP [SH2D1B_Y127], for which the enrichment score was inactive: 0.658.

Turning to AIFRRYSKFFD [SH3PXD2B_Y45_YF], the enrichment score was inactive: 0.207.

For the molecule KGIQLYDTPFE [SHB_Y297_YF], the enrichment score is inactive: 1.15.

Take KPAFSYTSSST [SIM1_Y356]: the enrichment score was inactive: 0.628.

As to ERFSYYGMKAV [SLC15A2_Y61], the enrichment score is inactive: 0.871.

With PGQRVYVVAES [SHH_Y316_R321S], the enrichment score was inactive: 0.855.

As to CERFSYYGMKA [SLC15A2_Y60], the enrichment score was inactive: 0.996.

As for STEAIYWRYSK [SH3PXD2B_Y42_R43W], the enrichment score is inactive: 0.691.

With KGIQLYDTPYE [SHB_Y297], the enrichment score was inactive: 1.26.

In the case of ALVFLYFCIIF [SIGLEC12_Y494], the enrichment score is inactive: 0.778.

As to CEHFSYYGMKA [SLC15A2_Y60_R57H], the enrichment score is inactive: 1.2.

For QYQLKYSETPF [SIX6OS1_Y129], the enrichment score was inactive: 0.452.

As for RKVAQYMLENE [SLC16A6_Y224_E221V], the enrichment score is inactive: 0.585.

A further experiment deals with SHP2 N-SH2 domain L43F. The description is as above. As to conditions: peptide library: pTyr-Var.
Consider LCRYGYANTSE [SI_Y1233], for which the enrichment score was inactive: 0.648.

As for LCRFGYANTSE [SI_Y1233_YF], the enrichment score was inactive: 0.693.

As to PTFENYANSTQ [SLC12A3_Y70_H69N_YF], the enrichment score was inactive: 0.658.

In the case of LSFSEYASVQV [SIRPA_Y496_P491L], the enrichment score was inactive: 1.04.

As for PTFKHYANSTQ [SLC12A3_Y70_E68K_YF], the enrichment score is inactive: 0.825.

As to NSNSDYVDVLP [SH2D1B_Y127], the enrichment score is inactive: 0.568.

For the molecule AIFRRYSKFFD [SH3PXD2B_Y45_YF], the enrichment score was inactive: 0.232.

Take KGIQLYDTPFE [SHB_Y297_YF]: the enrichment score is inactive: 1.31.

As to KPAFSYTSSST [SIM1_Y356], the enrichment score is inactive: 0.682.

For ERFSYYGMKAV [SLC15A2_Y61], the enrichment score is inactive: 0.899.

As for PGQRVYVVAES [SHH_Y316_R321S], the enrichment score is inactive: 0.944.

CERFSYYGMKA [SLC15A2_Y60]: the enrichment score is inactive: 0.845.

As for STEAIYWRYSK [SH3PXD2B_Y42_R43W], the enrichment score is inactive: 0.61.

Take KGIQLYDTPYE [SHB_Y297]: the enrichment score was inactive: 1.36.

On to ALVFLYFCIIF [SIGLEC12_Y494], for which the enrichment score was inactive: 0.636.

Take CEHFSYYGMKA [SLC15A2_Y60_R57H]: the enrichment score was inactive: 1.06.

In the case of QYQLKYSETPF [SIX6OS1_Y129], the enrichment score is inactive: 0.56.

Take RKVAQYMLENE [SLC16A6_Y224_E221V]: the enrichment score was inactive: 0.697.

A further experiment concerns the target SHP2 N-SH2 domain T42A. The description is as above. The settings on record: peptide library: pTyr-Var.
In the case of LCRYGYANTSE [SI_Y1233], the enrichment score was inactive: 0.61.

LCRFGYANTSE [SI_Y1233_YF]: the enrichment score is inactive: 0.66.

As for PTFENYANSTQ [SLC12A3_Y70_H69N_YF], the enrichment score was inactive: 0.335.

Consider LSFSEYASVQV [SIRPA_Y496_P491L], for which the enrichment score is inactive: 1.3.

For the molecule PTFKHYANSTQ [SLC12A3_Y70_E68K_YF], the enrichment score is inactive: 0.551.

Consider NSNSDYVDVLP [SH2D1B_Y127], for which the enrichment score is inactive: 0.51.

For AIFRRYSKFFD [SH3PXD2B_Y45_YF], the enrichment score is inactive: 0.306.

With KGIQLYDTPFE [SHB_Y297_YF], the enrichment score is inactive: 1.17.

Take KPAFSYTSSST [SIM1_Y356]: the enrichment score was inactive: 0.637.

Take ERFSYYGMKAV [SLC15A2_Y61]: the enrichment score is inactive: 0.922.

PGQRVYVVAES [SHH_Y316_R321S]: the enrichment score is inactive: 0.926.

CERFSYYGMKA [SLC15A2_Y60]: the enrichment score was inactive: 0.863.

Take STEAIYWRYSK [SH3PXD2B_Y42_R43W]: the enrichment score is inactive: 0.622.

On to KGIQLYDTPYE [SHB_Y297], for which the enrichment score was inactive: 1.34.

Take ALVFLYFCIIF [SIGLEC12_Y494]: the enrichment score is inactive: 0.877.

In the case of CEHFSYYGMKA [SLC15A2_Y60_R57H], the enrichment score is inactive: 0.985.

Regarding QYQLKYSETPF [SIX6OS1_Y129], the enrichment score is inactive: 0.726.

Consider RKVAQYMLENE [SLC16A6_Y224_E221V], for which the enrichment score is inactive: 0.627.

A further experiment has as its target SHP2 N-SH2 domain T52S. Described as above. The settings on record: peptide library: pTyr-Var.
Turning to LCRYGYANTSE [SI_Y1233], the enrichment score is inactive: 0.887.

For LCRFGYANTSE [SI_Y1233_YF], the enrichment score was inactive: 0.83.

PTFENYANSTQ [SLC12A3_Y70_H69N_YF]: the enrichment score was inactive: 0.674.

Regarding LSFSEYASVQV [SIRPA_Y496_P491L], the enrichment score is inactive: 0.852.

Regarding PTFKHYANSTQ [SLC12A3_Y70_E68K_YF], the enrichment score was inactive: 0.629.

For NSNSDYVDVLP [SH2D1B_Y127], the enrichment score is inactive: 0.83.

Turning to AIFRRYSKFFD [SH3PXD2B_Y45_YF], the enrichment score was inactive: 0.368.

As for KGIQLYDTPFE [SHB_Y297_YF], the enrichment score was inactive: 1.1.

For KPAFSYTSSST [SIM1_Y356], the enrichment score was inactive: 0.695.

Turning to ERFSYYGMKAV [SLC15A2_Y61], the enrichment score is inactive: 1.

On to PGQRVYVVAES [SHH_Y316_R321S], for which the enrichment score was inactive: 0.758.

With CERFSYYGMKA [SLC15A2_Y60], the enrichment score was inactive: 0.848.

As to STEAIYWRYSK [SH3PXD2B_Y42_R43W], the enrichment score is inactive: 0.582.

With KGIQLYDTPYE [SHB_Y297], the enrichment score is inactive: 1.59.

As to ALVFLYFCIIF [SIGLEC12_Y494], the enrichment score was inactive: 1.18.

CEHFSYYGMKA [SLC15A2_Y60_R57H]: the enrichment score was inactive: 1.02.

For QYQLKYSETPF [SIX6OS1_Y129], the enrichment score was inactive: 0.665.

On to RKVAQYMLENE [SLC16A6_Y224_E221V], for which the enrichment score is inactive: 0.584.

For another experiment, the target named is SHP2 N-SH2 domain wild-type. Described as above. As to conditions: peptide library: pTyr-Var.
Regarding LCRYGYANTSE [SI_Y1233], the enrichment score was inactive: 0.889.

Take LCRFGYANTSE [SI_Y1233_YF]: the enrichment score was inactive: 0.781.

For the molecule PTFENYANSTQ [SLC12A3_Y70_H69N_YF], the enrichment score was inactive: 0.927.

Take LSFSEYASVQV [SIRPA_Y496_P491L]: the enrichment score was inactive: 1.04.

For the molecule PTFKHYANSTQ [SLC12A3_Y70_E68K_YF], the enrichment score was inactive: 0.786.

Turning to NSNSDYVDVLP [SH2D1B_Y127], the enrichment score is inactive: 0.892.

AIFRRYSKFFD [SH3PXD2B_Y45_YF]: the enrichment score is inactive: 0.268.

As for KGIQLYDTPFE [SHB_Y297_YF], the enrichment score was inactive: 1.26.

In the case of KPAFSYTSSST [SIM1_Y356], the enrichment score is inactive: 0.799.

Regarding ERFSYYGMKAV [SLC15A2_Y61], the enrichment score was inactive: 1.06.

PGQRVYVVAES [SHH_Y316_R321S]: the enrichment score was inactive: 0.825.

For the molecule CERFSYYGMKA [SLC15A2_Y60], the enrichment score is inactive: 0.977.

With STEAIYWRYSK [SH3PXD2B_Y42_R43W], the enrichment score is inactive: 0.832.

Take KGIQLYDTPYE [SHB_Y297]: the enrichment score is inactive: 1.27.

Turning to ALVFLYFCIIF [SIGLEC12_Y494], the enrichment score was inactive: 0.695.

On to CEHFSYYGMKA [SLC15A2_Y60_R57H], for which the enrichment score was inactive: 1.04.

QYQLKYSETPF [SIX6OS1_Y129]: the enrichment score was inactive: 0.621.

In the case of RKVAQYMLENE [SLC16A6_Y224_E221V], the enrichment score is inactive: 0.631.
